According to patent publication US20240076343A1 (CEPHALON, published 2024):
Substitutions are numbered along the chain they refer to. Names and notes keep the numbering of the source.

T1: intermediate-affinity hIL-2 receptor (IL-2Rβγ) on TF1+IL-2Rβ cells (human, UniProt P14784 27-551; P31785 23-369)
T1 sequence 1: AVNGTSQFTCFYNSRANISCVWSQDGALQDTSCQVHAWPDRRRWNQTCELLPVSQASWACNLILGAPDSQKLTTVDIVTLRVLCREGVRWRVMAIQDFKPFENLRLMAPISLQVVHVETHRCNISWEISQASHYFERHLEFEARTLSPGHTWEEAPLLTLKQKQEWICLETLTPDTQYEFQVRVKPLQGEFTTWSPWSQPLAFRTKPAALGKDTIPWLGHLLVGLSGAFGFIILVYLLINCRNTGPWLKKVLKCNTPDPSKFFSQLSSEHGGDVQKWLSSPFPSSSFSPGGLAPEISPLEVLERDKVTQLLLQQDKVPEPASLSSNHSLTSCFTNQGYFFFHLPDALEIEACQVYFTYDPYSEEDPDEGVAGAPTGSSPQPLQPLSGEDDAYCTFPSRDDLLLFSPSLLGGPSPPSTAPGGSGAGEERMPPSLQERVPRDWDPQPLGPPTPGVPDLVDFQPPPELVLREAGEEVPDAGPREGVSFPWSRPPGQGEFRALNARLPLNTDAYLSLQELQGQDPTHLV
T1 sequence 2: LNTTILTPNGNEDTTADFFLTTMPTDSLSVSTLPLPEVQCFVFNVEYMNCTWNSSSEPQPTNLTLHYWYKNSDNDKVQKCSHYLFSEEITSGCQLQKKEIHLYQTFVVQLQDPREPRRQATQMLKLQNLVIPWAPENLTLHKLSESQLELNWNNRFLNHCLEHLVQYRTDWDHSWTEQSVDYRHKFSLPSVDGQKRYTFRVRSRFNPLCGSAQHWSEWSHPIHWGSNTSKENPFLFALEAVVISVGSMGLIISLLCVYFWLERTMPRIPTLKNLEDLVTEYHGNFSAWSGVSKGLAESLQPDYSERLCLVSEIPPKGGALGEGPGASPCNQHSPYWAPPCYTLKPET

T2: high-affinity hIL-2 receptor (IL-2Rαβγ) on NK-92 cells (human, UniProt P01589 22-272; P14784 27-551; P31785 23-369)
T2 sequence 1: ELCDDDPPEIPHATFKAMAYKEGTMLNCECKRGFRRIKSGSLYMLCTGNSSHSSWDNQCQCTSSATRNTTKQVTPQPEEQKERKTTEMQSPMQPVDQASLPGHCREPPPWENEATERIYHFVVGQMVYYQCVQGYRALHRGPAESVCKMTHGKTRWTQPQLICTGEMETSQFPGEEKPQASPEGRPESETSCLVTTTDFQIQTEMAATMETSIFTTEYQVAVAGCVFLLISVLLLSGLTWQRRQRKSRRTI
T2 sequence 2: T1 sequence 1
T2 sequence 3: T1 sequence 2

B1: OMC476pB11-hIgG4-df-hIL-2 (D20A/R38E) (other)
heavy: DVQLVESGGGVVRPGESLRLSCTASGFTFSISAMSWVRQAPGKGLEWVSAISGTAYSTYYADSVRGRFTISRDNSKNTLYLQMNSLRAEDTAVYYCAKDNFFDYWGLGTLVTVSSASTKGPSVFPLAPCSRSTSESTAALGCLVKDYFPEPVTVSWNSGALTSGVHTFPAVLQSSGLYSLSSVVTVPSSSLGTKTYTCNVDHKPSNTKVDKRV[not shown - about 350 residues with a human IgG4 Fc]
light: QSVMTQPPSASGTPGQRVTISCSGVTSNIGSNSVYWYQQLPGTAPKLLIYLNSQRPSGVPDRFSGSKSGTSASLAISGLQSEDEADYYCGTWDDSLNGWVFGGGTKLTVLGQPKAAPSVTLFPPSSEELQANKATLVCLISDFYPGAVTVAWKADSSPVKAGVETTTPSKQSNNKYAASSYLSLTPEQWKSHRSYSCQVTHEGSTVEKTVAPTECS
B2: OMC476pE4-hIgG4-df-hIL-2 (D20A/R38E) (other)
heavy: DVQLVESGGGVVRPGESLRLSCAASGFTFSTDAMGWVRQAPGEGLEWVSLISGSGYSTYYADSVKGRFTISRDNSKNTLYLQMNSLTAEDTAVYYCAKNSLAFFDYWGLGTLVTVSSASTKGPSVFPLAPCSRSTSESTAALGCLVKDYFPEPVTVSWNSGALTSGVHTFPAVLQSSGLYSLSSVVTVPSSSLGTKTYTCNVDHKPSNTKVDKRV[not shown - about 350 residues with a human IgG4 Fc]
light: QSVLTQPPSASGTPGQRVTISCSGGSSNIGRESVNWYQQLPGTAPKLLIYSTDRRPSGVPDRFSGSKSGTSASLAISGLQSEDEADYYCGTWDNDLNGWVFGGGTKLTVLGQPKAAPSVTLFPPSSEELQANKATLVCLISDFYPGAVTVAWKADSSPVKAGVETTTPSKQSNNKYAASSYLSLTPEQWKSHRSYSCQVTHEGSTVEKTVAPTECS
B3: OMC476pH10-hIgG4-df-hIL-2 (D20A/R38E) (other)
heavy: DVQLVESGGGVVRPGGSLRLSCAASGFTFSIYAVSWVRQAPGEGLEWVSHISASGGSTYYADSVKGRFAISRDNSKNTLYLQMNSLRAEDTAVYYCTTNLGSDYWGLGTLVTVSSASTKGPSVFPLAPCSRSTSESTAALGCLVKDYFPEPVTVSWNSGALTSGVHTFPAVLQSSGLYSLSSVVTVPSSSLGTKTYTCNVDHKPSNTKVDKRV[not shown - about 350 residues with a human IgG4 Fc]
light: QSVLTQPPSASGTPGQRVTISCSGSYSDIGTNYVYWYQQLPGTAPKLLIFATDRRPSGVPDRFSGSKSGTSASLAISGLQSEDEADYYCGTWDDSLNVWVFGGGTKLTVLGQPKAAPSVTLFPPSSEELQANKATLVCLISDFYPGAVTVAWKADSSPVKAGVETTTPSKQSNNKYAASSYLSLTPEQWKSHRSYSCQVTHEGSTVEKTVAPTECS
B4: A2-hIgG4-df-hIL-2 (D20A/F42A) (other)
heavy: DVQLVESGGGLVQPGGSLRLSCAASGFTFDISAMSWVRQAPGKGLEWVSTISGSAYSTYYADSVKGRFTISRDNSKSTLYLQMNSLRAEDTAVYYCAREIFSDYWGLGTLVTVSSASTKGPSVFPLAPCSRSTSESTAALGCLVKDYFPEPVTVSWNSGALTSGVHTFPAVLQSSGLYSLSSVVTVPSSSLGTKTYTCNVDHKPSNTKVDKRV[not shown - about 350 residues with a human IgG4 Fc and changes]
light: B1 light with M4L, V25S, S31R, N32E, L51S, S53V, V59A, D61N
B5: A2-hIgG4-df-hIL-2 (D20A/F42S) (other)
heavy: DVQLVESGGGLVQPGGSLRLSCAASGFTFDISAMSWVRQAPGKGLEWVSTISGSAYSTYYADSVKGRFTISRDNSKSTLYLQMNSLRAEDTAVYYCAREIFSDYWGLGTLVTVSSASTKGPSVFPLAPCSRSTSESTAALGCLVKDYFPEPVTVSWNSGALTSGVHTFPAVLQSSGLYSLSSVVTVPSSSLGTKTYTCNVDHKPSNTKVDKRV[not shown - about 350 residues with a human IgG4 Fc and changes]
light: B1 light with M4L, V25S, S31R, N32E, L51S, S53V, V59A, D61N
B6: A2-hIgG4-df-hIL-2 (F42A/N88R) (other)
heavy: DVQLVESGGGLVQPGGSLRLSCAASGFTFDISAMSWVRQAPGKGLEWVSTISGSAYSTYYADSVKGRFTISRDNSKSTLYLQMNSLRAEDTAVYYCAREIFSDYWGLGTLVTVSSASTKGPSVFPLAPCSRSTSESTAALGCLVKDYFPEPVTVSWNSGALTSGVHTFPAVLQSSGLYSLSSVVTVPSSSLGTKTYTCNVDHKPSNTKVDKRV[not shown - about 350 residues with a human IgG4 Fc and changes]
light: B1 light with M4L, V25S, S31R, N32E, L51S, S53V, V59A, D61N
B7: A2-hIgG4-df-hIL-2 (F42I/I92D) (other)
heavy: DVQLVESGGGLVQPGGSLRLSCAASGFTFDISAMSWVRQAPGKGLEWVSTISGSAYSTYYADSVKGRFTISRDNSKSTLYLQMNSLRAEDTAVYYCAREIFSDYWGLGTLVTVSSASTKGPSVFPLAPCSRSTSESTAALGCLVKDYFPEPVTVSWNSGALTSGVHTFPAVLQSSGLYSLSSVVTVPSSSLGTKTYTCNVDHKPSNTKVDKRV[not shown - about 350 residues with a human IgG4 Fc and changes]
light: B1 light with M4L, V25S, S31R, N32E, L51S, S53V, V59A, D61N
B8: A2-hIgG4-df-hIL-2 (F42Q/I92D) (other)
heavy: DVQLVESGGGLVQPGGSLRLSCAASGFTFDISAMSWVRQAPGKGLEWVSTISGSAYSTYYADSVKGRFTISRDNSKSTLYLQMNSLRAEDTAVYYCAREIFSDYWGLGTLVTVSSASTKGPSVFPLAPCSRSTSESTAALGCLVKDYFPEPVTVSWNSGALTSGVHTFPAVLQSSGLYSLSSVVTVPSSSLGTKTYTCNVDHKPSNTKVDKRV[not shown - about 350 residues with a human IgG4 Fc and changes]
light: B1 light with M4L, V25S, S31R, N32E, L51S, S53V, V59A, D61N
B9: A2-hIgG4-df-hIL-2 (F42T/I92D) (other)
heavy: DVQLVESGGGLVQPGGSLRLSCAASGFTFDISAMSWVRQAPGKGLEWVSTISGSAYSTYYADSVKGRFTISRDNSKSTLYLQMNSLRAEDTAVYYCAREIFSDYWGLGTLVTVSSASTKGPSVFPLAPCSRSTSESTAALGCLVKDYFPEPVTVSWNSGALTSGVHTFPAVLQSSGLYSLSSVVTVPSSSLGTKTYTCNVDHKPSNTKVDKRV[not shown - about 350 residues with a human IgG4 Fc and changes]
light: B1 light with M4L, V25S, S31R, N32E, L51S, S53V, V59A, D61N
B10: A2-hIgG4-df-hIL-2 (F42W/I92D) (other)
heavy: DVQLVESGGGLVQPGGSLRLSCAASGFTFDISAMSWVRQAPGKGLEWVSTISGSAYSTYYADSVKGRFTISRDNSKSTLYLQMNSLRAEDTAVYYCAREIFSDYWGLGTLVTVSSASTKGPSVFPLAPCSRSTSESTAALGCLVKDYFPEPVTVSWNSGALTSGVHTFPAVLQSSGLYSLSSVVTVPSSSLGTKTYTCNVDHKPSNTKVDKRV[not shown - about 350 residues with a human IgG4 Fc and changes]
light: B1 light with M4L, V25S, S31R, N32E, L51S, S53V, V59A, D61N
B11: D12-hIgG4-df-hIL-2 (D20A/R38E) (other)
heavy: DVQLVESGGGLVQPGGSLRLSCAASGFTFDISAMSWVRQAPGKGLEWVSTISGSAYSTYYADSVKGRFTISRDNSKSTLYLQMNSLRAEDTAVYYCAREIFSDYWGLGTLVTVSSASTKGPSVFPLAPCSRSTSESTAALGCLVKDYFPEPVTVSWNSGALTSGVHTFPAVLQSSGLYSLSSVVTVPSSSLGTKTYTCNVDHKPSNTKVDKRV[not shown - about 350 residues with a human IgG4 Fc]
light: B1 light with M4L, V25N, S31R, N32E, L51S, S53V
B12: OMC476pH7-hIgG4 (antibody)
heavy: DMQLVESGGGVVRPGESLRLSCTASGFTFSISAMSWVRQAPGKGLEWVSAISGTAYSTYYADSVRGRFTISRDNSKNTLYLQMNSLRAEDTAVYYCAKDNFFDYWGLGTLVTVSSASTKGPSVFPLAPCSRSTSESTAALGCLVKDYFPEPVTVSWNSGALTSGVHTFPAVLQSSGLYSLSSVVTVPSSSLGTKTYTCNVDHKPSNTKVDKRV[not shown - human IgG4 Fc with S228P (EU numbers)]
light: B1 light
B13: OMC476pB11-hIgG4 (antibody)
heavy: B12 heavy with M2V
light: B1 light

Target: T1, intermediate-affinity hIL-2 receptor …
Assay: cell-based or functional assay

| Binder | Fold decrease from rhIL-2 (TF1 + IL-2Rβ + hPD-1) [fold] |
| --- | --- |
| B1 | ~0 |
| B2 | ~2 |
| B3 | ~1 |
| B4 | ~2 |
| B5 | ~1 |
| B6 | ~0 |
| B7 | ~9 |
| B8 | ~5 |
| B9 | ~1 |
| B10 | ~4 |

Target: T3, human PD-1 (amino acids 1-185) on transfected Jurkat cells (human, UniProt Q15116 in part)
T3 construct: also called hPD-1; Jurkat+hPD-1 cell line
Assay: flow cytometry, Jurkat+hPD-1 cells

| Binder | fold increase in EC50 against the anti-hPD-1 antibody without the attenuated hIL-2 moiety [fold] |
| --- | --- |
| B11 | < 2 |

Target: T2, high-affinity hIL-2 receptor (IL-2Rαβγ) …
Assay: cell-based or functional assay

| Binder | Agonistic Activity (NK-92) [%] | Fold change from rhIL-2 (NK-92) [fold] |
| --- | --- | --- |
| B1 | 70 | > 10000 |
| B2 | 70 | > 10000 |
| B3 | 70 | > 10000 |
| B4 |  | 284 |
| B5 |  | 3540 |
| B6 |  | 6420 |
| B7 |  | 9540 |
| B8 |  | 8570 |
| B9 |  | 2180 |
| B10 |  | 1240 |

Target: T1, intermediate-affinity hIL-2 receptor …
Assay: cell-based or functional assay
Remark: another data set of the same source

| Binder | Fold change from rhIL-2 (TF1 + IL-2Rβ) [fold] | Agonistic Activity (TF1 + IL-2Rβ) [%] |
| --- | --- | --- |
| B1 | 36 |  |
| B2 | 1620 |  |
| B3 | ~3560 | 80 |
| B4 | ~4320 | 80 |
| B5 | ~4050 | 90 |
| B6 | ~3760 | 90 |
| B7 | ~5610 | 90 |
| B8 | ~3360 |  |
| B9 | ~5650 |  |
| B10 | ~4410 | 50 |

Target: T4, recombinant His-tagged human PD-1 (Acro Biosystems) (human, UniProt Q15116 in part)
T4 construct: His-tagged; also called hPD-1
Assay: SPR Carterra LSA;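 further: antibodies or fusion proteins amine-coupled on an HC30M chip, soluble His-tagged human or cynomolgus PD-1 titrated over them, non-regenerative kinetics, constants fitted from titration curves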

| Binder | Kd [nM] | koff [s⁻¹] | kon [M⁻¹ s⁻¹] |
| --- | --- | --- | --- |
| B12 | 18 | 0.0011 | 60000 |
| B13 | 30 | 0.0015 | 50000 |

Target: T5, recombinant His-tagged cynomolgus PD-1 (Acro Biosystems) (cynomolgus, UniProt B0LAJ3 25-170)
T5 construct: His-tagged; also called Cyno PD-1; not shown: His tag (and any linker) of the Acro Biosystems product
T5 sequence (B0LAJ3 entry or part of it limits assumed): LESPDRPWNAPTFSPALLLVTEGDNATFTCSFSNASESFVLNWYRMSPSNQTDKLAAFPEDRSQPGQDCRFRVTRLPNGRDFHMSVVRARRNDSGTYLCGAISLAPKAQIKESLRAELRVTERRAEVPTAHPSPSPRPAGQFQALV
Assay: SPR Carterra LSA;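 further: antibodies or fusion proteins amine-coupled on an HC30M chip, soluble His-tagged human or cynomolgus PD-1 titrated over them, non-regenerative kinetics, constants fitted from titration curves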

| Binder | Kd [nM] | koff [s⁻¹] | kon [M⁻¹ s⁻¹] |
| --- | --- | --- | --- |
| B12 | 221 | 0.017 | 78000 |
| B13 | 321 | 0.026 | 80000 |
